The supplement of paper PMC8728848
The other results are listed elsewhere or left out.

Columns and labels:
Assay in all cases: glycan array binding signal (z-score within array); higher = stronger binding
Conditions in all cases: glycan notation: IUPAC condensed, linker removed
[1] = biological target: GalNAc(a1-3)GalNAc(b1-3)Gal(a1-4)Gal(b1-4)GlcNAc
Method in brief: (§1)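 Negative Z-scores can be read as non-binding. The Z-score is calculated within each array and then averaged across arrays of one protein sequence at different concentrations or buffers and across linkers. Arrays, 3228 in all, were curated from the Consortium for Functional Glycomics database and kept only where the protein sequence was available.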

GalNAc(b1-3)Gal = biological target: GalNAc(b1-3)Gal
Method in brief: as §1

[2] = biological target: GalNAc(b1-3)Gal(a1-4)Gal(b1-4)GlcNAc
Method in brief: as §1

[3] = biological target: GalNAc(b1-3)Gal(a1-4)Gal(b1-4)GlcNAc(b1-3)Gal(b1-4)Glc
Method in brief: as §1

[4] = biological target: GalNAc(b1-3)Gal(a1-6)Gal(b1-4)Glc
Method in brief: as §1

GalNAc(b1-3)GalNAc = biological target: GalNAc(b1-3)GalNAc
Method in brief: as §1

GalNAc(b1-3)GlcNAc = biological target: GalNAc(b1-3)GlcNAc
Method in brief: as §1

GalNAc(b1-4)Gal(b1-4)Glc = biological target: GalNAc(b1-4)Gal(b1-4)Glc
Method in brief: as §1

GalNAc(b1-4)GlcNAc = biological target: GalNAc(b1-4)GlcNAc
Method in brief: as §1

[5] = biological target: GalNAc(b1-4)GlcNAc(b1-2)Man
Method in brief: as §1

[6] = biological target: GalNAc(b1-4)GlcNAc(b1-2)Man(a1-3)[GalNAc(b1-4)GlcNAc(b1-2)Man(a1-6)]Man(b1-4)GlcNAc(b1-4)GlcNAc
Method in brief: as §1

[7] = biological target: GalNAc(b1-4)GlcNAc(b1-3)GalNAc(b1-4)GlcNAc
Method in brief: as §1

GalNAc(b1-4)GlcNAc6S = biological target: GalNAc(b1-4)GlcNAc6S
Method in brief: as §1

GalNAc(b1-6)GalNAc = biological target: GalNAc(b1-6)GalNAc
Method in brief: as §1

GalNAc3S(b1-4)GlcNAc = biological target: GalNAc3S(b1-4)GlcNAc
Method in brief: as §1

GalNAc3S(b1-4)GlcNAc3S = biological target: GalNAc3S(b1-4)GlcNAc3S
Method in brief: as §1

[8] = biological target: GalNAc3S(b1-4)[Fuc(a1-3)]GlcNAc
Method in brief: as §1

GalNAc4S6S(b1-4)GlcNAc = biological target: GalNAc4S6S(b1-4)GlcNAc
Method in brief: as §1

GalNAc6S(b1-4)GlcNAc = biological target: GalNAc6S(b1-4)GlcNAc
Method in brief: as §1

Glc(a1-4)Glc = biological target: Glc(a1-4)Glc
Method in brief: as §1

[9] = biological target: Glc(a1-4)Glc(a1-4)Glc(a1-4)Glc
Method in brief: as §1

Glc(a1-6)Glc(a1-6)Glc = biological target: Glc(a1-6)Glc(a1-6)Glc
Method in brief: as §1

[10] = biological target: Glc(a1-6)Glc(a1-6)Glc(a1-6)Glc
Method in brief: as §1

Glc(b1-4)Glc = biological target: Glc(b1-4)Glc
Method in brief: as §1

Glc(b1-6)Glc = biological target: Glc(b1-6)Glc
Method in brief: as §1

GlcA(b1-3)Gal = biological target: GlcA(b1-3)Gal
Method in brief: as §1

GlcA(b1-3)GlcNAc = biological target: GlcA(b1-3)GlcNAc
Method in brief: as §1

GlcA(b1-6)Gal = biological target: GlcA(b1-6)Gal
Method in brief: as §1

[11] = biological target: GlcA3S(b1-3)Gal(b1-4)GlcNAc(b1-2)Man
Method in brief: as §1

[12] = biological target: GlcA3S(b1-3)Gal(b1-4)GlcNAc(b1-3)Gal(b1-4)Glc
Method in brief: as §1

[13] = biological target: GlcNAc(a1-3)Gal(b1-4)GlcNAc
Method in brief: as §1

[14] = biological target: GlcNAc(a1-4)Gal(b1-3)GlcNAc
Method in brief: as §1

[15] = biological target: GlcNAc(a1-4)Gal(b1-4)GalNAc
Method in brief: as §1

[16] = biological target: GlcNAc(a1-4)Gal(b1-4)GlcNAc
Method in brief: as §1

[17] = biological target: GlcNAc(a1-4)Gal(b1-4)GlcNAc(b1-3)Gal(b1-4)Glc
Method in brief: as §1

[18] = biological target: GlcNAc(a1-4)Gal(b1-4)GlcNAc(b1-3)Gal(b1-4)GlcNAc
Method in brief: as §1

[19] = biological target: GlcNAc(a1-4)Gal(b1-4)GlcNAc(b1-3)Gal(b1-4)GlcNAc(b1-3)Gal(b1-4)GlcNAc
Method in brief: as §1

[20] = biological target: GlcNAc(a1-4)Gal(b1-4)GlcNAc(b1-3)Gal(b1-4)[Fuc(a1-3)]GlcNAc(b1-3)Gal(b1-4)[Fuc(a1-3)]GlcNAc
Method in brief: as §1

B1: AT5G01260(PC)(40) (Arabidopsis thaliana), Q9LFB0 (protein)
chain: MIGIGRTLTSSSPSKIILEDLPPGIYRYGTEIFTSVPRKTFHHIKFLRLDSAQSSRILKPVPLRSSSIKDSQVNVEDEEIEASNKTVRVRFQLRKECVFGEHFFIVGDDPVFGGLWDPETALPLNWSDGNVWTVDLDLPVGRLVEFKLLLKAQTGEILWQPGPNRALETWETNKTIRICEDWDNADLQMMIEEDFVPYTNISSIGSEDEDEVLGSVQQNSSVVAVENAGYVSDESAQNSSFSIQSEKTMEPSNGALTAREVIKEAMFTEEESPVLVPGLIPLSDLDNEQVEVINEGKAETFPEVDKKQEPKAERNKKAKVKAISLFEKSEQEAVKSVEQRQYNAVEEEQQRLETEPLGTPDVLFENDIQWGRRTLYKLLSNFRLF
- glycan array binding signal (z-score) [1]: -0.574
- glycan array binding signal (z-score) (GalNAc(b1-3)Gal): -0.032
- glycan array binding signal (z-score) [2]: 2.47
- glycan array binding signal (z-score) [3]: -0.717
- glycan array binding signal (z-score) [4]: -0.39
- glycan array binding signal (z-score) (GalNAc(b1-3)GalNAc): -0.797
- glycan array binding signal (z-score) (GalNAc(b1-3)GlcNAc): 0.162
- glycan array binding signal (z-score) (GalNAc(b1-4)Gal(b1-4)Glc): -0.139
- glycan array binding signal (z-score) (GalNAc(b1-4)GlcNAc): 8.76
- glycan array binding signal (z-score) [5]: -0.345
- glycan array binding signal (z-score) [6]: -0.301
- glycan array binding signal (z-score) [7]: -0.883
- glycan array binding signal (z-score) (GalNAc(b1-4)GlcNAc6S): -0.442
- glycan array binding signal (z-score) (GalNAc(b1-6)GalNAc): -0.477
- glycan array binding signal (z-score) (GalNAc3S(b1-4)GlcNAc): 0.056
- glycan array binding signal (z-score) (GalNAc3S(b1-4)GlcNAc3S): -0.252
- glycan array binding signal (z-score) [8]: -0.85
- glycan array binding signal (z-score) (GalNAc4S6S(b1-4)GlcNAc): -0.439
- glycan array binding signal (z-score) (GalNAc6S(b1-4)GlcNAc): 0.189
- glycan array binding signal (z-score) (Glc(a1-4)Glc): 0.056
- glycan array binding signal (z-score) [9]: -0.311
- glycan array binding signal (z-score) (Glc(a1-6)Glc(a1-6)Glc): 0.361
- glycan array binding signal (z-score) [10]: -0.339
- glycan array binding signal (z-score) (Glc(b1-4)Glc): 0.511
- glycan array binding signal (z-score) (Glc(b1-6)Glc): -0.237
- glycan array binding signal (z-score) (GlcA(b1-3)Gal): 0.174
- glycan array binding signal (z-score) (GlcA(b1-3)GlcNAc): -0.356
- glycan array binding signal (z-score) (GlcA(b1-6)Gal): -0.401
- glycan array binding signal (z-score) [11]: -0.145
- glycan array binding signal (z-score) [12]: -0.282
- glycan array binding signal (z-score) [13]: -0.525
- glycan array binding signal (z-score) [14]: 0.079
- glycan array binding signal (z-score) [15]: -0.422
- glycan array binding signal (z-score) [16]: -0.188
- glycan array binding signal (z-score) [17]: -0.389
- glycan array binding signal (z-score) [18]: 0.055
- glycan array binding signal (z-score) [19]: -0.241
- glycan array binding signal (z-score) [20]: 0.564
